Experimental findings from US11618753B2 (priority 2018, dated 2023) are described below.

The subject of the test is MLKL phosphorylation, HT29-L23 human colorectal adenocarcinoma cells. The experiment in a line: cells. As to conditions: read-out: pMLKL HCS Cell Assay (IC50, uM).
One may read the IC50 as the midpoint of a concentration-inhibition curve. For `COc1ncc(-c2cc(C(F)(F)F)c3c(N)ncnn23)cc1C(=O)NC1CN(CC2(C)COC2)CC1F` (racemic) [Example 200, 5-[4-amino-5-(trifluoromethyl)pyrrolo[2,1-f][1,2,4]triazin-7-yl]-N-{4-fluoro-1-[(3-methyloxetan-3-yl)methyl]pyrrolidin-3-yl}-2-methoxypyridine-3-carboxamide], the IC50 was 0.316 µM.

`CCCCCNC(=O)N1C[C@H](F)[C@H](NC(=O)c2cc(-c3cc(C(F)(F)F)c4c(N)ncnn34)cnc2OC)C1` [Example 1839, 5-(4-amino-5-(trifluoromethyl)pyrrolo[2,1-f][1,2,4]triazin-7-yl)-N-((3R,4S)-4-fluoro-1-(pentylcarbamoyl)pyrrolidin-3-yl)-2-methoxynicotinamide]: the IC50 was found to be 0.288 µM. In the case of `Cc1ccc(-c2cc(C(F)(F)F)c3c(N)ncnn23)cc1C(=O)N[C@@H]1CN(C(=O)C2CC(F)(F)C2)C[C@@H]1F` [Example 986, 5-[4-amino-5-(trifluoromethyl)pyrrolo[2,1-f][1,2,4]triazin-7-yl]-N-[(3R,4S)-1-(3,3-difluorocyclobutanecarbonyl)-4-fluoropyrrolidin-3-yl]-2-methylbenzamide] it was 0.0016 µM; in that of `Cc1cc(F)c(-c2cc(C(F)(F)F)c3c(N)ncnn23)cc1C(=O)N[C@@H]1CN(C(=O)c2ccc(Cl)nn2)C[C@@H]1F` [Example 864, 5-[4-amino-5-(trifluoromethyl)pyrrolo[2,1-f][1,2,4]triazin-7-yl]-N-[(3R,4S)-1-(6-chloropyridazine-3-carbonyl)-4-fluoropyrrolidin-3-yl]-4-fluoro-2-methylbenzamide], 0.131 µM. With `Nc1ncnn2c(-c3ccc(F)c(C(=O)N[C@@H]4CN(C(=O)C5CCC(F)(F)CC5)C[C@@H]4F)c3)cc(C(F)(F)F)c12` [Example 255, 5-[4-amino-5-(trifluoromethyl)pyrrolo[2,1-f][1,2,4]triazin-7-yl]-N-[(3R,4S)-1-(4,4-difluorocyclohexanecarbonyl)-4-fluoropyrrolidin-3-yl]-2-fluorobenzamide], the IC50 is 0.093 µM. As to `Nc1ncnn2c(-c3ccc(Cl)c(C(=O)N[C@@H]4CN(C(=O)c5ncc(F)cc5F)C[C@@H]4F)c3)cc(C(F)(F)F)c12` [Example 945, 5-[4-amino-5-(trifluoromethyl)pyrrolo[2,1-f][1,2,4]triazin-7-yl]-2-chloro-N-[(3R,4S)-1-(3,5-difluoropyridine-2-carbonyl)-4-fluoropyrrolidin-3-yl]benzamide], the half-maximal inhibitory concentration (IC50) is 0.065 µM. Under `Cc1cc(-c2cc(C(F)(F)F)c3c(N)ncnn23)cc(C(=O)N[C@@H]2CN(C(=O)CC(C)(O)C(F)(F)F)C[C@@H]2F)c1Cl` (stereo partly drawn) [Example 711, 5-[4-amino-5-(trifluoromethyl)pyrrolo[2,1-f][1,2,4]triazin-7-yl]-2-chloro-N-[(3R,4S)-4-fluoro-1-(4,4,4-trifluoro-3-hydroxy-3-methylbutanoyl)pyrrolidin-3-yl]-3-methylbenzamide] stands 0.012 µM. As for `Nc1ncnn2c(-c3cc(C(=O)N[C@@H]4CN(C(=O)CC(F)(F)F)C[C@@H]4F)c(F)cc3F)cc(C(F)(F)F)c12` [Example 775, 5-[4-amino-5-(trifluoromethyl)pyrrolo[2,1-f][1,2,4]triazin-7-yl]-2,4-difluoro-N-[(3R,4S)-4-fluoro-1-(3,3,3-trifluoropropanoyl)pyrrolidin-3-yl]benzamide], the IC50 is 0.074 µM. In the case of `Cc1ccc(-c2cc(C(F)(F)F)c3c(N)ncnn23)cc1C(=O)Nc1ncn(Cc2ccccc2)c1C` [Example 1795, 5-(4-amino-5-(trifluoromethyl)pyrrolo[2,1-f][1,2,4]triazin-7-yl)-N-(1-benzyl-5-methyl-1H-imidazol-4-yl)-2-methylbenzamide] it was 0.01 µM. Under `CC(C)CC(=O)N1C[C@H](F)[C@H](NC(=O)c2cccc(-c3cc(CN4CC(F)(F)C4)c4c(N)ncnn34)c2)C1` [Example 1165, 3-{4-amino-5-[(3,3-difluoroazetidin-1-yl)methyl]pyrrolo[2,1-f][1,2,4]triazin-7-yl}-N-[(3R,4S)-4-fluoro-1-(3-methylbutanoyl)pyrrolidin-3-yl]benzamide] stands 0.00065 µM. In the case of `COc1ncc(-c2cc(C(F)(F)F)c3c(N)ncnn23)cc1C(=O)N[C@@H]1CN(C(C)c2ccccc2F)C[C@@H]1F` (single isomer, unassigned) [Example 449] it was 0.0028 µM; in that of `Cc1ccc(-c2cc(C(F)(F)F)c3c(N)ncnn23)cc1C(=O)N[C@@H]1CN(C(=O)c2cc(Cl)ccn2)C[C@@H]1F` [Example 1015, 5-[4-amino-5-(trifluoromethyl)pyrrolo[2,1-f][1,2,4]triazin-7-yl]-N-[(3R,4S)-1-(4-chloropyridine-2-carbonyl)-4-fluoropyrrolidin-3-yl]-2-methylbenzamide], 0.022 µM. Regarding `Cc1c(F)cc(-c2cc(C(F)(F)F)c3c(N)ncnn23)cc1C(=O)N[C@@H]1CN(C(=O)c2cncc(F)c2)C[C@@H]1F` [Example 1324, 5-[4-amino-5-(trifluoromethyl)pyrrolo-[2,1-f][1,2,4]triazin-7-yl)-3-fluoro-N-[(3R,4S)-4-fluoro-1-(5-fluoropyridine-3-carbonyl)pyrrolidin-3-yl]-2-methyl-benzamide], the 50% inhibitory concentration (IC50) is 0.0081 µM. In the case of `COc1ncc(-c2cc(C(F)(F)F)c3c(N)ncnn23)cc1C(=O)N[C@@H]1CN(C(=O)CC(C)(O)C(F)(F)F)C[C@@H]1F` (stereo partly drawn) [Example 1224, 5-[4-amino-5-(trifluoromethyl)pyrrolo[2,1-f][1,2,4]triazin-7-yl]-N-[(3R,4S)-4-fluoro-1-(4,4,4-trifluoro-3-hydroxy-3-methylbutanoyl)pyrrolidin-3-yl]-2-methoxypyridine-3-carboxamide] it was 0.0091 µM. On to `CC(C)CC(=O)N1C[C@H](F)[C@H](NC(=O)c2cc(-c3cc(C(F)(F)F)c4c(N)ncnn34)cc(F)c2Cl)C1` [Example 641, 5-[4-amino-5-(trifluoromethyl)pyrrolo[2,1-f][1,2,4]triazin-7-yl]-2-chloro-3-fluoro-N-[(3R,4S)-4-fluoro-1-(3-methylbutanoyl)pyrrolidin-3-yl]benzamide], for which the half-inhibitory concentration (IC50) came out at 0.0074 µM. In the case of `CCC(O)(C(=O)N1C[C@H](F)[C@H](NC(=O)c2cc(-c3cc(C(F)(F)F)c4c(N)ncnn34)cc(F)c2F)C1)C(F)(F)F` (stereo partly drawn) [Example 1337, 5-[4-amino-5-(trifluoromethyl)pyrrolo-[2,1-f][1,2,4]triazin-7-yl]-2,3-difluoro-N-[(3R,4S)-4-fluoro-1-[2-hydroxy-2-(trifluoromethyl)butanoyl]pyrrolidin-3-yl]benzamide] it was 0.0028 µM. Under `[2H]C([2H])([2H])Oc1ncc(-c2cc(C(F)(F)F)c3c(N)ncnn23)cc1C(=O)N[C@@H]1CN(C(=O)C(C)(C)F)C[C@@H]1F` [Example 381, 5-[4-amino-5-(trifluoromethyl)pyrrolo [2,1-f][1,2,4]triazin-7-yl]-N-[(3R,4S)-4-fluoro-1-(2-fluoro-2-methylpropanoyl)pyrrolidin-3-yl]-2-(deutero)methoxy-pyridine-3-carboxamide] stands 0.026 µM.
